# According to paper PMC4336329 (PLoS ONE, 2015):
# About 2,200 (0.71%) of roughly 310,000 compounds showed an effect of 50% or more. The effect is printed as a negative number. The list shows a part of the results.
# Biological target: human ether-à-go-go-related gene (hERG) potassium channel (human, UniProt Q12809)
# Assay: primary screen, population patch clamp on CHO cells stably expressing hERG
# Sequence of human ether-à-go-go-related gene (hERG) potassium channel (Q12809 whole entry, looked up): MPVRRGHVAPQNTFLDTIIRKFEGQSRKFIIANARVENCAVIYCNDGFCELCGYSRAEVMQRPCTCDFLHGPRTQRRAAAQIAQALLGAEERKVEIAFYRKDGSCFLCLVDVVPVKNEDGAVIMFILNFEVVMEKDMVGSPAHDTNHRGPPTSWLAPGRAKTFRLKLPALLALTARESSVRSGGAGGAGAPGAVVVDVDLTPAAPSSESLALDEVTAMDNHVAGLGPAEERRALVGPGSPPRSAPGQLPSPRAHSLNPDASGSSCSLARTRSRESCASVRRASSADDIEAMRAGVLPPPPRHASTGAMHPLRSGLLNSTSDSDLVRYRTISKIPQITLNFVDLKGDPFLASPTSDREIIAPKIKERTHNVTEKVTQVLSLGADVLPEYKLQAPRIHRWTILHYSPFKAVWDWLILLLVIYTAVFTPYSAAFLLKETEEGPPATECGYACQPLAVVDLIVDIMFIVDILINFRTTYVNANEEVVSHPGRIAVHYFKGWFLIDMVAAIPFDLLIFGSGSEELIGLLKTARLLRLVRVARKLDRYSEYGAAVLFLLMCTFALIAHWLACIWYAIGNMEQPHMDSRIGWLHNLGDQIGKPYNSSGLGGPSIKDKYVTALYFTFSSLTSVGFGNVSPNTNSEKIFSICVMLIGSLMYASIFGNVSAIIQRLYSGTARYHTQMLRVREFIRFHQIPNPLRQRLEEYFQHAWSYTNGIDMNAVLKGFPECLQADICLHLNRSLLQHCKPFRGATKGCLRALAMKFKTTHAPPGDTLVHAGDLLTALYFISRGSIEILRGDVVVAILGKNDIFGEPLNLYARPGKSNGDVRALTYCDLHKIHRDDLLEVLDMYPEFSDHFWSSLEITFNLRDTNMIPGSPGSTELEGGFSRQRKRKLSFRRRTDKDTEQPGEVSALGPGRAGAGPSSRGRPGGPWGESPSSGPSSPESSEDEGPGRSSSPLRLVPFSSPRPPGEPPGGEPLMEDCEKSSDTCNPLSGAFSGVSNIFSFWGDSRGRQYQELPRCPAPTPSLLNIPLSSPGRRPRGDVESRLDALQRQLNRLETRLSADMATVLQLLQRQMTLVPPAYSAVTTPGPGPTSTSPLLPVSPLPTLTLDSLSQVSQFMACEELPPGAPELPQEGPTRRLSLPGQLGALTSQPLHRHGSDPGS
row,SMILES,"hERG current change (%, negative = inhibition) at 1uM"
1,Cc1cc2nccc(-c3ccncc3)n2n1,28.6%
2,COc1ccccc1N(CC(=O)NC1CC2CCC1C2)S(=O)(=O)c1ccc(C)cc1 (stereo not shown),-2%
3,CC(=O)N1CCOc2ccc(S(=O)(=O)NCc3ccc(C)cc3)cc21,14.6%
4,Cn1c(-c2sccc2OCc2cccc(C(F)(F)F)c2)n[nH]c1=S,11.7%
5,COc1ccc(Cl)cc1NC(=O)/C=C\C(=O)O,2.73%
6,COC(=O)C1CCN(C(=O)c2sc3nc(-c4ccc(F)cc4)cn3c2C)CC1,-22.5%
7,COCCn1c(SCC(=O)Nc2cc(C)on2)nc2ccccc2c1=O,9.93%
8,O=C(C1CCCN(Cc2cc(Br)ccc2O)C1)N1CCCCC1.O=C(O)C(=O)O (stereo not shown),-10.3%
9,CC1CCCN(C(=O)c2nn(C)c3c2CSc2ccccc2-3)C1 (stereo not shown),-1.58%
10,CC(C)(C)c1ccc(-c2nc(C#N)c(N3CCC(C(N)=O)CC3)o2)cc1,3.6%
11,CC(C)c1ccc(NC(=O)NCc2cccnc2)cc1,6.81%
12,CN(C)C(=O)Oc1ccc2c(=O)c(Oc3ccccc3Br)coc2c1,11.1%
13,CCOC(=O)C1=C(C)NC(C)=C(C(=O)OCC)C1C(=O)OCC(=O)N1CCC(C)CC1,12.8%
14,Cc1cccc(OCCCC(=O)Nc2ccc(Br)cc2)c1,7.3%
15,O=[N+]([O-])c1cccc(-c2nc3ccc([N+](=O)[O-])cc3[nH]2)c1,10.3%
16,CC(C)Cn1c2c(c(O)c(C(=O)Nn3c(Cc4ccccc4)nc4ccccc4c3=O)c1=O)CCCC2,9.27%
17,CCOC(=O)N1CCC(NC(=O)c2cnn3ccccc23)CC1,12%
18,CCCCNC(=O)N(c1c(N)n(Cc2ccccc2)c(=O)[nH]c1=O)C1CCCC1,13.2%
19,CNc1ncnc(Sc2ccc(Cl)cc2)c1[N+](=O)[O-],10.1%
20,CCC(CC)C(=O)Nc1cccc(/C(C)=N/NC(=O)c2ccccc2Cl)c1,5.17%
21,O=C(Nc1ccncc1)c1ccc(Cl)c(S(=O)(=O)N2CCc3ccccc32)c1,11.5%
22,S=C(NCCCc1ccccc1)Nc1ccccc1Cl,5.96%
23,O=C(N/N=C/c1ccc(N2CCOCC2)s1)c1ccccc1Cl,13.5%

row,SMILES,"hERG current change (%, negative = inhibition) at 1uM"
1,C[N+](C)(C)CCOC(=O)C1(c2ccccc2)CCCC1.[I-],4.04%
2,O=C(O)CCCNC(=O)Cc1ccccc1,12.7%
3,Cn1c(=O)c2c(nc(CN3CCN(C(=O)c4ccco4)CC3)n2Cc2ccc(Cl)cc2)n(C)c1=O,-37.2%
4,COc1ccc(OCCCC(=O)Nc2ccc(N3CCOCC3)cc2)cc1,9.59%
5,CCN(CC(=O)N1CCN(C)CC1)S(=O)(=O)c1ccc(Cl)cc1,3.08%
6,O=C1C2CC=C(Cl)CC2C(=O)N1CNc1ccccn1 (stereo not shown),15.8%
7,O=C(O)Cc1ccc(NS(=O)(=O)c2ccccc2Cl)cc1,8.62%
8,CC(C)CCC(O)(CCC(C)C)C(=O)NNc1ccccc1,-3.75%
9,CC(=O)c1cccc(N=C2NC(=O)C(CO)(CO)S2)c1,3.48%
10,CC(C)NC(=O)NS(=O)(=O)c1cnccc1N1CCCCC1,14.1%
11,COc1ccccc1C(=O)NCC(c1cccnc1)N(C)C (stereo not shown),-1.44%
12,COc1ccc(Cl)cc1NC(=O)CN(C)CC(=O)Nc1ccc(Br)cc1,5.56%
13,CCOC(=O)Nc1cc(NC(=O)OCC)c(C)nc1C,2.31%
14,CC(Oc1cc2oc(=O)c3c(c2cc1Cl)CCC3)C(=O)N1C[C@H]2C[C@@H](C1)c1cccc(=O)n1C2 (stereo partly shown),-4.75%
15,O=C(Nc1ccc2c(c1)OCO2)C1CCN(S(=O)(=O)c2ccc3c(c2)OCCO3)CC1,11.3%
16,COc1ccc(CNC(=O)COc2cc(O)c3c(c2)OC(C)(C)CC3=O)cc1,-11.9%
17,Cc1cccc(-n2c(O)c(C=NC34CN5CN(CN(C5)C3)C4)c(=O)[nH]c2=O)c1,2.16%
18,CCOC(=O)C1=C(CC)Nc2ccccc2N=C1NC(=O)c1cccc(S(=O)(=O)N2CCOCC2)c1,7.28%
19,CS(=O)(=O)N1CC(C(=O)NC2CC2)Oc2ccc(Cl)cc21 (stereo not shown),16.9%
20,Cc1nn(-c2ccccc2)c(Cl)c1/C=N\NC(=O)c1cnccn1,7.01%
21,CC(=O)Nc1ccc(NC(=O)c2cc(=O)c3ccccc3o2)cc1,14.6%
22,Cc1ccccc1N1CCN(Cc2cccc(C(=O)O)c2)CC1.Cl,4.2%
23,CCN(C(=O)CSc1nc(-c2ccccc2)cn1N)c1c(N)n(Cc2ccccc2)c(=O)[nH]c1=O,12.2%
